# Laboratory results published in the supplement of paper PMC3334620.
# The full ranking holds about 33,000 sequences; the median of “E-score (-0.5 to 0.5)” is about -0.012, and the highest 2% start at about 0.27. The list shows a part of the results.
# Biological target: T1, Vhr1 (UniProt P40522)
# T1 sequence: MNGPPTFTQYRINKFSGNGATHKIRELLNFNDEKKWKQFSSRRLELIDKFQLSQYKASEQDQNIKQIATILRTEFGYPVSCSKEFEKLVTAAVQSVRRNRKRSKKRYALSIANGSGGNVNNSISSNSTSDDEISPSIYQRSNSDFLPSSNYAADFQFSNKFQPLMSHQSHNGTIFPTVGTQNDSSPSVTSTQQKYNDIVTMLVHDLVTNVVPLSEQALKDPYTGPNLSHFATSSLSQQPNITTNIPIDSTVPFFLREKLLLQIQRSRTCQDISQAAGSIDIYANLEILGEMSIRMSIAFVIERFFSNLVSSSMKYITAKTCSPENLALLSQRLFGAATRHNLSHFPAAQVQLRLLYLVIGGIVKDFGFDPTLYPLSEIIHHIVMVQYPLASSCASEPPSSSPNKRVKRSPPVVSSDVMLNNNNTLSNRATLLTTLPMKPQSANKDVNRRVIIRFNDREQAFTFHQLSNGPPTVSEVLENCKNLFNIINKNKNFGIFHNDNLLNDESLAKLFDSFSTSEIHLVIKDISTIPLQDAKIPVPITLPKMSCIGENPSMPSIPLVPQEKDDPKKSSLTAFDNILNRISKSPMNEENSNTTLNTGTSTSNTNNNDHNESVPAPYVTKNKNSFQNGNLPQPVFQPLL
# Experiment: PBM E-score (8-mer binding enrichment) (E-score (-0.5 to 0.5)); higher = stronger / more preferred TF binding; most listed sequences are background and not binding sites
# Conditions: protein concentration: 200 nM; construct: GST-full length
# Method in brief: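 Universal all-10-mer Agilent arrays, fresh or stripped once, were converted to double-stranded form by primer extension. GST-tagged yeast transcription factors from PURExpress in vitro transcription/translation, full-length or DNA-binding domain only, were applied at about 100-200 nM and detected with fluorescent anti-GST. After masliner normalisation, the Universal PBM Analysis Suite scored each ungapped eight-base word together with its reverse complement by E-score.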
row,Sequence,PBM E-score
1,CAGGATCG,-0.0146
2,AAAGAGAG,-0.309
3,CCCGGAAA,-0.0328
4,ACTAGCGC,0.0141
5,ACTGGCGA,0.124
6,ACGACATC,-0.0989
7,CACTACCC,0.106
8,AATGGAAG,-0.0985
9,CTGCCGAA,-0.243
10,ACACCGAG,0.143
11,CCTGGAAG,-0.197
12,ACCTGCCA,-0.0896
13,GGCTGCAA,0.0564
14,ATCCCAGA,-0.258
15,CCACAGAG,0.0729
16,CCAAAACA,-0.0108
17,TCTATGAA,-0.117
18,ACATTCCA,-0.0573
19,TGCTTCAA,-0.245
20,AGGCCGCC,-0.138
21,ACCGGCCA,-0.0884
22,GAGATCCC,0.0278
23,AATGGATC,-0.0227
24,GAGATAAA,-0.0981
25,ACCTCAGA,-0.108

row,Sequence,PBM E-score
1,AGGCAGTG,0.0426
2,ACCTCTCG,-0.0212
3,ATGTAGCG,-0.0682
4,ATAGAGGA,-0.238
5,CGCGAGAG,-0.135
6,ACGGAAAA,-0.222
7,AACCGGAC,0.00415
8,ATGGTCAC,0.103
9,AGTCACAT,0.402
10,TGTGGTAA,0.00846
11,CTCACAAC,0.0847
12,TAATCGGA,-0.00772
13,ATCCTCGA,0.0391
14,CGTTAAGA,-0.223
15,CTAACTAG,0.0331
16,GCGTCGAA,0.204
17,CCTGCGAA,0.0952
18,CAGCAGAA,0.132
19,CCCATCCC,0.0993
20,CGCATGAA,0.142
21,AGAAGAAC,-0.0515
22,AATGTATC,0.153
23,CACACACA,0.276
24,AGGCACAT,0.0884
25,CTACACGA,0.169

row,Sequence,PBM E-score
1,AAACATCC,0.0341
2,ATGGCAAA,-0.176
3,AACATGAG,0.182
4,ACAACCAG,0.066
5,ATGTACCC,0.0694
6,CAAGTGAG,-0.121
7,AATAGAGT,-0.168
8,CAATGTAA,0.0481
9,TAAAACGA,-0.196
10,TCCCGTCA,-0.168
11,CTCCACAG,-0.118
12,AATGTCTG,-0.114
13,AATCGAGG,0.0694
14,CGCGATGA,0.241
15,AAAACCGA,-0.0854
16,AGCAGGGA,-0.0538
17,ATTAATCA,0.217
18,TCATGACA,0.209
19,GAACGACC,-0.107
20,CCTGAAGA,-0.0556
21,CCAAACAA,-0.00796
22,ACACCATG,0.212
23,ACGAATAC,0.0945
24,AATACGGC,0.156
25,AGTTGTGA,0.112

row,Sequence,PBM E-score
1,GGAAACAA,-0.108
2,TAGATTAA,-0.026
3,CCCCTGTA,0.0333
4,CAATCAAA,-0.008
5,AACAATCC,0.21
6,ACACTAAT,0.165
7,CGGCTGTC,-0.116
8,CCCGGCTC,-0.0335
9,CGAGCGTC,-0.176
10,CCTTCGAA,-0.198
11,AGACTCTA,-0.0431
12,CCGCCCGC,0.173
13,ATTATTGC,-0.0063
14,CCTTGTAA,-0.068
15,AAGCCTCG,0.00094
16,GATCAGAC,-0.163
17,ACGGCAGT,-0.0959
18,CAGCTGAC,0.187
19,CACACTCG,0.224
20,CTATCGGC,-0.0658
21,CGTTGTGC,-0.0841
22,AAGGCGAC,-0.132
23,GAGATATA,-0.00259
24,ATTCCTTC,0.0252
25,CACGTCGC,-0.188

row,Sequence,PBM E-score
1,GCAGGAGC,-0.121
2,ATCCACAA,-0.065
3,AAGCGGCA,-0.0839
4,GAAGCAAA,-0.215
5,AAGTTGCA,-0.173
6,CCGCGCGA,0.22
7,GTTATATA,0.245
8,TGTACGAA,0.164
9,CTCGAGAC,0.154
10,ATCAACTC,0.0592
11,CGGGGCGA,0.207
12,AGTACGAT,0.242
13,CAGTAGGC,-0.0769
14,AACCCAAG,-0.0298
15,CACTTAAC,-0.11
16,ACCTCCGT,0.00733
17,GTACGTTA,0.0729
18,ACAATCAG,0.0835
19,GGGTCTTA,0.0577
20,CACGGCAC,-0.186
21,CTTGTGGC,0.0383
22,ATTATAAT,0.0549
23,GGGGCCCC,0.046
24,CTTCCGAC,0.0483
25,GTTTCGTA,-0.0415

row,Sequence,PBM E-score
1,ACCAACTC,0.0754
2,ACGCCAGT,0.00194
3,CTTATACC,-0.0429
4,AGTCTAAA,-0.194
5,CCAGAAAC,0.0129
6,AAAGCAGG,-0.0878
7,GCATCCCA,-0.098
8,GGTTGGTA,0.0645
9,CATGGGGG,-0.0184
10,TGCCGGCA,-0.0519
11,CAGCGCGA,-0.178
12,CGCTACCG,-0.218
13,AGCATAGC,-0.0351
14,GGTCTCTA,-0.212
15,GGAGTAAC,0.0988
16,AGCGATCA,-0.0576
17,AAACGGGA,0.0481
18,AAAAATCG,-0.309
19,AAGCTCCT,-0.222
20,AAGTTCCG,-0.15
21,GTGCAGGA,-0.00089
22,TACTGAGA,0.0431
23,ACTTCTTA,-0.173
24,GCCCCGAA,-0.0782
25,CTATGATA,0.203

row,Sequence,PBM E-score
1,CAGCTCTA,-0.217
2,GGTGTACA,0.0547
3,CTAAAGTA,-0.184
4,AACGCCTC,-0.301
5,CCAGTAAC,0.0345
6,ATTGCCGA,-0.0606
7,AGCCTGCA,0.116
8,CTATATAG,0.181
9,CCAATTTA,0.0832
10,AGAATGGA,-0.0239
11,CTTCCCCA,-0.00541
12,AACGACCT,0.0957
13,CTGTGTGA,0.306
14,CATTGCGG,0.178
15,TTCATGAA,-0.0114
16,GCGTGTGA,0.104
17,CGCTTATC,0.0886
18,ACCCGTAG,-0.0736
19,ACAACCTC,-0.221
20,ATCGCAAG,0.218
21,CAGGGGCG,0.301
22,AGGGGCTC,-0.218
